Among all 370,000 compounds or so, about 150 (0.041%) were called active. Inconclusive results, whose numbers are uncertain, are shown with a selection of clear calls. Calls follow the shape of the dose curve; as a rule, active = well fitted inhibition curve with a large enough effect; inconclusive = small, poorly fitted or top-dose-only effect; inactive = flat fitted curve, though single readings scatter. Potencies of inconclusive entries are left out as doubtful fits.
target: Beta-lactamase (Escherichia coli (strain K12)) (UniProt P00811); experiment: qHTS Inhibitors of AmpC Beta-Lactamase (assay with detergent); details: AmpC hydrolysis of nitrocefin, absorbance 480 nm, 0.01% Triton; activity change, negative = inhibition: at 114 µM (top of the series); also: nearly all actives have a fitted effect of over 25% in size;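 as to activity change, negative = inhibition: 0% = no-compound wells and -100% = no-enzyme wells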
Summary of the method: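 20 mM phosphate pH 7.0 + 0.01% (detergent screen) or 0.0001% Triton X-100; 5.3 nM AmpC reagent; cpd preinc 15 min RT; nitrocefin (800 uM stock) to start; A480 q20 s × 4 min; Activity was normalised to no-enzyme and no-compound control wells.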
Potency is read from the fitted curve at half-maximal effect; tags tell the direction and shape of the fitted curve.

Chain of UniProt P00811 (P00811 whole entry, looked up): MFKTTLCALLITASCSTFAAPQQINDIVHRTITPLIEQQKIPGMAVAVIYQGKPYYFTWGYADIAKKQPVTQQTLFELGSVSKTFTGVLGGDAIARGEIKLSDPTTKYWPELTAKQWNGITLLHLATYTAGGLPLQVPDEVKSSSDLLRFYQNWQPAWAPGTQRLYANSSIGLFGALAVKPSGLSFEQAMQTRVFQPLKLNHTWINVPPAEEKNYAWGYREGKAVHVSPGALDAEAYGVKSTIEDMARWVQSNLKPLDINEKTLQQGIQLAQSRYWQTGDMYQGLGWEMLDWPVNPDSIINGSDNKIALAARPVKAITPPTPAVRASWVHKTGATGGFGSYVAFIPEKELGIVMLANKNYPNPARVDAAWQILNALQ

Row | SMILES | Potency | activity change, negative = inhibition
1 | O=C(NCCN1CCCC1=O)C1CCC(=O)N(CCc2cccc(F)c2)C1 (stereo not given) | inconclusive [inhibitor, partial curve, poor fit] | –
2 | CCOC(=O)c1c(NC(=O)COC(=O)c2nccnc2N)sc(C(=O)N(C)C)c1C | inconclusive [inhibitor, full curve, poor fit] | –
3 | CC(=O)OCC1=C(C(=O)O)N2C(=O)C(NC(=O)c3ccc(COc4ccc(Cl)cc4)o3)C2SC1 (stereo not given) | – | inactive: -3.15%
4 | CN(CC(=O)Nc1c(Cl)cccc1Cl)C(=O)c1cc(-c2cccs2)nn1-c1ccccc1 | inconclusive [inhibitor, full curve] | –
5 | Cc1ccc(N2CCN(S(=O)(=O)c3c(C)[nH]c(=O)[nH]c3=O)CC2C)cc1 (stereo not given) | – | inactive: 0.674%
6 | O=C(O)c1cc(-c2ccc3c(c2)OCO3)nc2ccc(Br)cc12 | inconclusive [inhibitor, partial curve] | –
7 | CCOc1ccc(C2/C(=C(\O)c3ccc(OC)c(OC)c3)C(=O)C(=O)N2c2cc(C)on2)cc1OC (stereo not given) | inconclusive [inhibitor, partial curve, poor fit] | –
8 | COC(=O)CC(=O)CSc1nc(C)cc(C)c1C#N | inconclusive [inhibitor, full curve, poor fit] | –
9 | CCC1CCCCN1Cc1ccc(OC)c(C)c1 (stereo not given) | inconclusive [inhibitor, partial curve, poor fit] | –
10 | Cc1oncc1-c1csc(-c2ccccc2Cl)n1 | – | inactive: -1.6%
11 | COC(=O)c1sc(NC(=O)CSc2nc3cccnc3n2C2CCCCC2)nc1C | inconclusive [inhibitor, full curve, poor fit] | –
12 | O=C(/C=C\N1CCOCC1)c1ccc(Br)cc1 | – | inactive: -11.6%
13 | COc1ccc(C(=O)N/C(=C\c2cccs2)c2nc3ccccc3[nH]2)cc1OC | inconclusive [inhibitor, full curve] | –
14 | CCOC(=O)C1(C)C=C(Nc2ccc(OC)cc2)C(=O)N1c1ccc(OC)cc1 (stereo not given) | inconclusive [inhibitor, partial curve, poor fit] | –
15 | COC(=O)c1c(C(=O)OC)c(-c2ccccc2)n2c1CS(=O)(=O)C2 | inconclusive [inhibitor, full curve] | –
16 | COC(=O)c1c(C)[nH]c(C(=O)/C=C/c2ccc(C)cc2)c1C | – | inactive: -5.62%
17 | C=CCC(C(=O)OC)(C(=O)OC)c1ccc(C(F)(F)F)cc1[N+](=O)[O-] | inconclusive [inhibitor, full curve, poor fit] | –
18 | CSc1cc(CS(=O)(=O)c2ccccc2)nc(-c2ccccc2)n1 | inconclusive [inhibitor, partial curve] | –
19 | O=C(COc1ccc(Cl)cc1)NCCCn1ccnc1 | – | inactive: -13.3%
20 | CN(C)c1ccc(/C=c2\sc3n(c2=O)CCCN=3)cc1 | – | inactive: 1.48%
21 | COc1cccc(OC)c1C(=O)Nc1nnc(-c2ccc(F)cc2)s1 | inconclusive [inhibitor, partial curve, poor fit] | –
22 | CC(C)OC(=O)c1cc2c(ccn2C)n1CC(=O)N(Cc1ccccc1)c1ccc(F)cc1 | inconclusive [inhibitor, full curve, poor fit] | –

Row | SMILES | Potency | activity change, negative = inhibition
23 | Cc1ccc(NC(=O)COC(=O)c2ccc(S(=O)(=O)N3CCCCC3)cc2)cc1 | inconclusive [inhibitor, full curve, poor fit] | –
24 | COc1cccc(C(=O)NCCOc2cc(C)cc(C)c2)c1 | inconclusive [inhibitor, full curve] | –
25 | CCOc1cc(C(=O)Nc2ccc(S(=O)(=O)N3CCCCC3)cc2)ccc1OCC(=O)N1CCOCC1 | inconclusive [inhibitor, partial curve, poor fit] | –
26 | COC(=O)c1ccc(N2C(=O)CC(N3CCC(n4c(=O)[nH]c5ccccc54)CC3)C2=O)cc1 (stereo not given) | inconclusive [inhibitor, full curve, poor fit] | –
27 | CCCCn1c(N)c(N(CC(C)C)C(=O)c2c(-c3ccccc3)noc2C)c(=O)[nH]c1=O | – | inactive: -8%
28 | O=C1c2ccccc2C(=O)N1CCCCSc1nnc(-c2ccc(OC(F)F)cc2)o1 | inconclusive [inhibitor, full curve] | –
29 | c1ccc(-c2n[nH]c(-c3ccccn3)n2)nc1 | inconclusive [inhibitor, partial curve, poor fit] | –
30 | COc1ccc(-c2ccc(-c3noc(-c4ccccc4C)n3)c(OC)n2)cc1 | inconclusive [inhibitor, full curve] | –
31 | CCc1ccc(OCC(=O)Nc2ccc(CN3CCCCC3)cc2)cc1 | inconclusive [inhibitor, full curve] | –
32 | COc1ccc(S(=O)(=O)Cc2ccc(C(=O)N3CCN(c4ccccn4)CC3)o2)cc1 | – | inactive: -6.47%
33 | CC(NC(=O)Nc1ccc([N+](=O)[O-])cc1)C(c1cccs1)N1CCCC1 (stereo not given) | inconclusive [inhibitor, full curve, poor fit] | –
34 | CCOC(=O)N1CCN(C(=O)C2CCN(S(=O)(=O)c3ccc(OCC)cc3)CC2)CC1 | inconclusive [inhibitor, single point] | –
35 | Cc1ccc(S(=O)(=O)Cc2nc(-c3ccc(C(=O)NCc4ccccc4C)cc3)oc2C)cc1 | – | inactive: -8.74%
36 | CC(=C1C(=O)c2ccccc2C1=O)N1CCN(Cc2ccccc2)CC1 | inconclusive [inhibitor, single point] | –
37 | Cc1cccc(NC(=O)C(C)Sc2nnc(-c3cccnc3)o2)c1 (stereo not given) | – | inactive: -21.1%
38 | CCOC(=O)c1c(-c2ccc(C)cc2)csc1NC(=O)c1cc(=O)c2cc(C)cc(C)c2o1 | – | inactive: 6.26%
39 | CCN(CC)S(=O)(=O)c1ccc2c(c1)c(=O)c(C(=O)NCc1ccccc1Cl)cn2C | – | inactive: 11.6%
40 | COc1ccccc1C(=O)NC(=O)COc1ccc(Cl)cc1Cl | inconclusive [inhibitor, partial curve, poor fit] | –
41 | COc1ccccc1OC[C@H](O)CO | inconclusive [inhibitor, partial curve] | –
42 | CC1CC(C)CN(c2nc3c(c(=O)n(C)c(=O)n3C)n2CCSc2ncccn2)C1 (stereo not given) | inconclusive [inhibitor, full curve, poor fit] | –
43 | O=C(O)CCC(=O)N1CCc2cc(S(=O)(=O)N3CCN(c4ccc(F)cc4)CC3)ccc21 | inconclusive [inhibitor, full curve] | –
44 | CCOC(=O)c1noc2ncnc(N3CCN(c4cccc(C(F)(F)F)c4)CC3)c12 | – | inactive: 17.1%

Row | SMILES | Potency | activity change, negative = inhibition
45 | CC(C)Oc1ccc(OCCSc2nc3ccccc3n2CC(=O)O)cc1 | inconclusive [inhibitor, full curve, poor fit] | –
46 | CC(=O)Nc1cc(C(=O)OCc2cccc([N+](=O)[O-])c2)ccc1C | inconclusive [inhibitor, single point] | –
47 | Cc1cc(C)c2c(CC(=O)NCCc3ccccc3)coc2c1 | inconclusive [inhibitor, full curve] | –
48 | CC(c1nnc(SCn2nnc3ccccc3c2=O)n1-c1ccc(Cl)cc1)N(C)C (stereo not given) | inconclusive [inhibitor, partial curve] | –
49 | CCN(CC(=O)Nc1cc(Cl)ccc1C)C(=O)C1COc2ccccc2O1 (stereo not given) | – | inactive: -0.0055%
50 | O=C(NC1CC2CCCC(C1)N2C(=O)Nc1ccccc1F)C1CC1 (stereo not given) | inconclusive [inhibitor, partial curve] | –
51 | CCNc1nc(NCC)n2c(SCC(=O)Nc3ccc(OC(F)F)cc3)nnc2n1 | inconclusive [inhibitor, full curve] | –
52 | CCc1ccc(NC(=O)CSc2nc3c(c(=O)[nH]2)CN(Cc2ccc(C)cc2)CC3)cc1 | – | inactive: 21.5%
53 | Cc1cc(NC(=S)Nc2ccccc2)ccc1Br | inconclusive [inhibitor, full curve, poor fit] | –
54 | Cc1nnc(Oc2ccccc2F)c2ccccc12 | inconclusive [inhibitor, partial curve, poor fit] | –
55 | O=C(OC(C(=O)NCc1cccs1)c1ccccc1Cl)c1ccco1 (stereo not given) | inconclusive [inhibitor, full curve, poor fit] | –
56 | O=C(c1cccs1)c1coc2ccc(O)c(CN3CCOCC3)c12 | – | inactive: -9.62%
57 | Cc1sc2c(c1C)c(=O)nc1scc(CC(=O)O)n12 | inconclusive [inhibitor, partial curve, poor fit] | –
58 | O=[N+]([O-])c1cccc(/C=C/C=N/Nc2nc(N3CCCCC3)nc(N3CCCCC3)n2)c1 | inconclusive [inhibitor, full curve, poor fit] | –
59 | O=C(Nc1cccc(NC(=O)c2ccccc2[N+](=O)[O-])n1)c1ccccc1[N+](=O)[O-] | – | inactive: -3.5%
60 | CC(=O)[C@@H]1[C@@H](C(=O)c2ccc(F)cc2)[C@]2(C(=O)Nc3ccccc32)[C@H]2C=Cc3cc(F)ccc3N12 | inconclusive [inhibitor, single point] | –
61 | CCC(C)NC(=O)C1=C(C)C(=O)OC12CCC(C)CC2 (stereo not given) | inconclusive [inhibitor, full curve, poor fit] | –
62 | C=CCn1c(=O)c(C(=O)NCc2ccc(Cl)cc2)c(O)c2ccccc21 | inconclusive [inhibitor, partial curve] | –
63 | COc1ccc(C(=O)N=c2sc3c(C)ccc(OC)c3n2C)cc1 | inconclusive [inhibitor, full curve, poor fit] | –
64 | COc1nnc(-c2ccc(N3CCCCC3)c(NC(=O)c3ccccc3Cl)c2)c2ccccc12 | – | inactive: 24.2%
65 | Oc1cc(-c2ccc(N3CCCCC3)nc2)cc2cccnc12 | inconclusive [inhibitor, full curve, poor fit] | –

Reference: PubChem BioAssay AID485294 (National Center for Advancing Translational Sciences (NCATS), 2010)
